# The campaign covered roughly 310,000 compounds. About 2,200 (0.71%) showed an effect of 50% or more. The effect is printed as a negative number. Some of the results follow.
# Biological target: human ether-à-go-go-related gene (hERG) potassium channel (human, UniProt Q12809)
# Test: primary screen, population patch clamp on CHO cells stably expressing hERG
# human ether-à-go-go-related gene (hERG) potassium channel, sequence (Q12809 whole entry, looked up): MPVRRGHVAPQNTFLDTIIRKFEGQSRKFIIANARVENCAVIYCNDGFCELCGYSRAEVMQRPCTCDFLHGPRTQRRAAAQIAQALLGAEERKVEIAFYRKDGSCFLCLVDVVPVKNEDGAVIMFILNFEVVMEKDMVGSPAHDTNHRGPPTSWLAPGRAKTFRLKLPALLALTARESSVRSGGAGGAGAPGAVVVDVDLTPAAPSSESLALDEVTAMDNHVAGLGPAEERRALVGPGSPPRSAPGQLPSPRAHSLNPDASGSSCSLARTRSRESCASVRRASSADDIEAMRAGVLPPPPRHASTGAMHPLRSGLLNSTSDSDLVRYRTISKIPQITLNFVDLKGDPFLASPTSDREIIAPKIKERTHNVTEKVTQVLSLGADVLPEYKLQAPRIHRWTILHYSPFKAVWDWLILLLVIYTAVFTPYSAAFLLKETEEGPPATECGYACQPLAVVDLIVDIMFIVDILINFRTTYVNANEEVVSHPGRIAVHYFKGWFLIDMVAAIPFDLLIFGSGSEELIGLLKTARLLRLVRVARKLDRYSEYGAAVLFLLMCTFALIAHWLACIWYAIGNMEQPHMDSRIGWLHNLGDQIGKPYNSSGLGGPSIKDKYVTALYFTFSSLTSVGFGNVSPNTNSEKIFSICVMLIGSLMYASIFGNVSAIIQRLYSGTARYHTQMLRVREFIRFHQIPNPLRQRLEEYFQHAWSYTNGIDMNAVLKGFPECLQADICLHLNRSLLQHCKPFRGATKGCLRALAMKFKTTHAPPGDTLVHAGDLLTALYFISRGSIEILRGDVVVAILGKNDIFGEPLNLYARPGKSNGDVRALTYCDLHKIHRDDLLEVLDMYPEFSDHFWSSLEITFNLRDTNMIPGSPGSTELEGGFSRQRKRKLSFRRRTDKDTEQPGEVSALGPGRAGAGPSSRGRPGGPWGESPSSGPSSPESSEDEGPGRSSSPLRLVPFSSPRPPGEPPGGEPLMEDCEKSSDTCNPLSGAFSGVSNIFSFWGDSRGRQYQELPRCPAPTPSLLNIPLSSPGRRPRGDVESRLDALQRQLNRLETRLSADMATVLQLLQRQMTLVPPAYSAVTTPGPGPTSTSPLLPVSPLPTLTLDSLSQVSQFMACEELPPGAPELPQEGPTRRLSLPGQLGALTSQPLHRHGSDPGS
row,Structure (SMILES),"hERG current change (%, negative = inhibition) at 1uM [%]"
1,C[C@@H](C(=O)O)[C@@H]1C[C@@]1(C)[C@@H](NC(=O)OCc1ccccc1)c1ccccc1,14.7
2,COc1ccccc1N1CCN(C2CCN(C(=O)c3ccc(F)cc3)CC2)CC1,-19.6
3,C#CCNC(=O)C1=C[C@H](C)[C@@H](CCCO)[C@H](OCC)O1,15.3
4,Cc1cc(Br)c2c(c1)/C(=C/C(=O)c1cccs1)C(=O)N2,12.4
5,Cc1ccccc1C(=O)O/N=C/c1c(N2CCOCC2)n(C)c2ccccc12,9.98
6,Cc1cc(C)cc(C(=O)NCC(=O)OCC(=O)N2c3ccccc3NC(=O)C2(C)C)c1,4.41
7,O=C(CO/N=C/c1ccc(Cl)cc1Cl)NNC(=O)c1ccc(Cl)cc1Cl,10.8
8,Br.Nc1nc(-c2ccc(Br)cc2)cs1,-2.25
9,CCCOc1cccc(NC(=O)c2cc(C)oc2C)c1,-0.18
10,CC(C)(C)NS(=O)(=O)c1ccc(NS(C)(=O)=O)cc1,0.641
11,CCOc1ccc(N(CC)S(=O)(=O)c2cccc3nsnc23)cc1,9.82
12,CCCCN=C1CC(C)(C)CC(=O)/C1=C(/O)CCCN1C(=O)c2ccccc2C1=O,-7.29
13,Cc1ccc(Nc2cc(C)nc(-c3ccccc3O)n2)cc1,8.83
14,CC(C)(C)C(=O)N1CCN(S(=O)(=O)c2ccc3c(c2)OCCCO3)CC1,2.12
15,COC(=O)c1ccc(NC(=O)C(C)N2C(=O)c3ccccc3C2=O)cc1 (centres unmarked),8.14
16,CC(=O)c1c(O)cc(C)n(Nc2nc(C)cc(C)n2)c1=O,4.15
17,COC(=O)[C@H]1[C@H]2C[C@H]3c4[nH]c5ccccc5c4CCN3C[C@H]2CC[C@@H]1O.Cl,13.2
18,CC(=O)Nc1cc(C)nn1-c1nc2ccccc2s1,8.3
19,CN(CCCNC(=O)c1nn(C)c2c1CS(=O)(=O)c1ccccc1-2)Cc1ccccc1,-0.679
20,COc1ccc(-c2sc3ccccc3c2C#CC2(O)CCCCC2)cc1,12.7
21,COc1ccc(C2=NOC3(CC(=O)N(c4ccc(F)cc4)C3=O)C2)c(OC)c1 (centres unmarked),11.3
22,Cc1cccc2c1ncc1c(=O)n(-c3ccccc3)[nH]c12,10.4
23,CCOc1ccc(NC(=O)COc2nsnc2N2CCOCC2)cc1,-12.7

row,Structure (SMILES),"hERG current change (%, negative = inhibition) at 1uM [%]"
1,CCn1cc(Cl)c(C(=O)N2N=C(c3ccc4ccccc4c3)CC2c2ccccc2O)n1 (centres unmarked),6.54
2,CNC(=O)NC(=O)C(OC(=O)Cc1cccc(C(F)(F)F)c1)c1ccccc1 (centres unmarked),12.5
3,COc1nccc(C(F)(F)F)c1C(=O)NC(=O)Nc1c(C)cccc1C,6.68
4,COc1ccc(C(=O)NCCNc2ccc([N+](=O)[O-])cn2)cc1,4.69
5,Cc1ccc(Nc2ncnc3c2oc2ccccc23)cc1,5.26
6,CCCn1c(N2CCN(C(=O)Nc3ccc(Cl)cc3)CC2)nc2ccccc21,7.31
7,COc1ccc(/C=N/NC(=O)c2ccncc2)cc1CN1CCOCC1,6.59
8,CCC(=O)Nc1ccc(N2CCOCC2)c(S(=O)(=O)Nc2ccc(Cl)cc2)c1,11.9
9,CCOC(=O)C(=O)NNc1ccc(C)cc1,6.6
10,O=C(/C=C/c1ccco1)Nc1sc2c(c1C(=O)O)CCC2,2.18
11,COc1ccc(CC(=O)NCc2nnc(SCC(=O)Nc3nccs3)n2C)cc1,11.5
12,CCOC(=O)N1CCC(NC(=O)C(C)n2c3ccccc3c3cnn(C)c(=O)c32)CC1 (centres unmarked),7.12
13,Cc1nnc(NC(=O)CSc2nnc3c(n2)[nH]c2ccc(Br)cc23)s1,18.2
14,Cc1cc(NC(=O)C2CC2)ncc1NC(=O)C12CC3CC(CC(C3)C1)C2,6.45
15,O=C(COc1ccc(S(=O)(=O)N2CCOCC2)cc1Cl)N1CCCC1,18.8
16,Cc1cc2oc(=O)cc(CN3CCCCC3C)c2cc1C (centres unmarked),1.4
17,CC(/C=C/c1cccs1)=C\C(=O)O,24.4
18,CC1=NN(C(C#N)c2cccc([N+](=O)[O-])c2)C(C)(C)C1 (centres unmarked),-6.34
19,CC(C)C[C@H](NC(=O)NCc1ccccc1Cl)C(=O)O,5.75
20,CN1CCN(c2ccccc2NC(=O)c2sc3ccccc3c2Cl)CC1,8.53
21,CCOC(=O)CSc1nnc(-c2ccccc2NC(=O)c2ccccc2)o1,8.72
22,COc1cc(/C=N/S(=O)(=O)c2ccccc2)cc(OC)c1O,10.2
23,COc1ccc(CCNC(=O)c2ccnc(C(C)(C)C)c2)cc1OC,5.31

row,Structure (SMILES),"hERG current change (%, negative = inhibition) at 1uM [%]"
1,CCC(=O)N1c2ccc(S(=O)(=O)N3CCCC3)cc2CC1C (centres unmarked),14.2
2,CC1=NN(c2ccc([N+](=O)[O-])cc2)C(c2ccccc2)C1 (centres unmarked),12.5
3,CCc1ccc(/C=C\C(=O)N2CCc3ccccc3C2)cc1,16.3
4,O=C(Oc1cc(=O)oc2ccccc12)c1cccnc1Cl,13.6
5,COc1cccc(-c2nc(CS(=O)(=O)CC(=O)Nc3ccccc3Br)c(C)o2)c1,8.87
6,NC(=O)Cn1cnc(-c2ccccc2)c1,11.1
7,CN(CCNC(=O)C1(O)c2ccccc2NC(=O)N1c1ccccc1)Cc1ccccc1 (centres unmarked),0.189
8,N#Cc1ccc(N2CCc3ccccc3C2)c([N+](=O)[O-])c1,4.22
9,O=C(c1cc(-c2ccccc2)nc2ccccc12)N1CCC2(CC1)OCCO2,5.68
10,CCCCN(C)C(=O)C1CCN(Cc2cccnc2)CC1,10.1
11,Cc1ccc2c(c1)N(CC(=O)NC1CCCCC1C)C(=O)CO2 (centres unmarked),4.36
12,O=C1CCN(c2ncccc2[N+](=O)[O-])CC1,10.2
13,O=S(=O)(NCCc1ccccc1)c1ccccc1,8.41
14,N#C/C(=C\c1c(N2CCC(C(N)=O)CC2)nc2ccccn2c1=O)C(=O)NC1CCCCC1,17.3
15,Cc1ccc(C(=O)Nc2ccc(S(=O)(=O)N3CCN(C)CC3)cc2)o1,12.8
16,O=C(COC(=O)c1ccc(Cl)nc1)Nc1nnc(-c2ccccc2)o1,9.69
17,Cc1cc(OCn2ccc(C(=O)O)n2)ccc1Cl,7.87
18,O=C(NCc1ccco1)c1ccccc1NS(=O)(=O)c1ccc2c(c1)OCCO2,-3.13
19,Cl.O=C(CN1CCCCC1)Nc1cccc(Cl)c1,-9.48
20,O=[N+]([O-])/C(=C\Nc1ccc(F)cc1F)S(=O)(=O)c1ccccc1,16.4
21,CCN(CC1COc2ccccc2O1)C(=O)CN1C(=O)NC(C)(c2ccc(C)cc2)C1=O (centres unmarked),3.82
22,CCOC(=O)C1=C(C)Nc2ccccc2N=C1NC(=O)c1cccc(S(=O)(=O)N(C)C)c1,10.4
23,COc1cccc(C(=O)NCc2cn3ccsc3n2)c1,11.4

row,Structure (SMILES),"hERG current change (%, negative = inhibition) at 1uM [%]"
1,CCS(=O)(=O)N1CCN(C(=O)c2ccco2)CC1,7.95
2,CC(C)CCOC(=O)C1C(c2ccccc2)C(C(=O)O)C1c1ccccc1 (centres unmarked),10.8
3,COc1ccc(C(=O)Nc2ccccc2)cc1NC(=O)c1cccs1,-11
4,Cc1c(C)c2c(OCC(=O)N[C@@H](C)C(=O)O)cc3c(c2oc1=O)CCC(C)(C)O3,13.2
5,O=C(COc1ccccc1)N1CCN=C1SCc1ccc(F)cc1,-5.44
6,Cc1nn(-c2ccccc2)c(Cl)c1/C=C1/C(=N)N2N=C(C(C)C)SC2=NC1=O,7.49
7,CN(C1CCCCC1)S(=O)(=O)c1ccc(NC(=O)CCC(=O)O)cc1,4.75
8,Cc1c(NC(=O)N(C)c2ccccc2)c(=O)n(-c2ccccc2)n1C,13.7
9,COc1ccc2nc(C)c3c(c2c1)OC(C(C)(Cl)Br)C3 (centres unmarked),-1.16
10,CCn1c(=O)c(C(=O)Nc2ccccc2F)c(O)c2ccccc21,13.5
11,CCN(CC)C(=O)/C=C/c1ccccc1,12
12,O=C(Oc1cccc(-n2cnnn2)c1)c1ccccc1,7.35
13,CCCCCC(=O)N/N=C(\C)c1ccc(Cl)cc1,4.63
14,O=C(CN(Cc1ccco1)S(=O)(=O)c1ccccc1)N/N=C/c1cccc(O)c1,5.51
15,N#Cc1ccc(Cn2ccnc2C(=O)Nc2ccccc2)cc1,-86.8
16,CC(C)C(=O)Nc1ccc2c(c1)C(=O)N(CCC(=O)O)C2=O,15.7
17,Cc1ccc(/C=N/NC(=O)c2cccc(S(=O)(=O)Nc3ccccc3Cl)c2)o1,15.9
18,O=C(OCc1nnc(-c2ccccc2)o1)c1cc(S(=O)(=O)N2CCOCC2)c(Cl)cc1Cl,6.57
19,CCOC(=O)c1[nH]ncc1CN1CCN(Cc2ccc(C)cc2)C(CCO)C1 (centres unmarked),-9.93
20,CCOC(=O)c1ccc(NC(=O)CCNS(=O)(=O)c2ccc3c(c2)oc(=O)n3C)cc1,6.23
